# Data taken from PMC4336329 (PLoS ONE, 2015).
# Screen size: about 310,000 compounds; about 14,000 (4.5%) showed an effect of 50% or more. The effect is printed as a negative number. The list shows a part of the results.
# Target: human ether-à-go-go-related gene (hERG) potassium channel (human, UniProt Q12809)
# Test: primary screen, population patch clamp on CHO cells stably expressing hERG
# 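Further: peak tail current of the secondary pulse compared with the same well before compound.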
# human ether-à-go-go-related gene (hERG) potassium channel, sequence (Q12809 whole entry, looked up): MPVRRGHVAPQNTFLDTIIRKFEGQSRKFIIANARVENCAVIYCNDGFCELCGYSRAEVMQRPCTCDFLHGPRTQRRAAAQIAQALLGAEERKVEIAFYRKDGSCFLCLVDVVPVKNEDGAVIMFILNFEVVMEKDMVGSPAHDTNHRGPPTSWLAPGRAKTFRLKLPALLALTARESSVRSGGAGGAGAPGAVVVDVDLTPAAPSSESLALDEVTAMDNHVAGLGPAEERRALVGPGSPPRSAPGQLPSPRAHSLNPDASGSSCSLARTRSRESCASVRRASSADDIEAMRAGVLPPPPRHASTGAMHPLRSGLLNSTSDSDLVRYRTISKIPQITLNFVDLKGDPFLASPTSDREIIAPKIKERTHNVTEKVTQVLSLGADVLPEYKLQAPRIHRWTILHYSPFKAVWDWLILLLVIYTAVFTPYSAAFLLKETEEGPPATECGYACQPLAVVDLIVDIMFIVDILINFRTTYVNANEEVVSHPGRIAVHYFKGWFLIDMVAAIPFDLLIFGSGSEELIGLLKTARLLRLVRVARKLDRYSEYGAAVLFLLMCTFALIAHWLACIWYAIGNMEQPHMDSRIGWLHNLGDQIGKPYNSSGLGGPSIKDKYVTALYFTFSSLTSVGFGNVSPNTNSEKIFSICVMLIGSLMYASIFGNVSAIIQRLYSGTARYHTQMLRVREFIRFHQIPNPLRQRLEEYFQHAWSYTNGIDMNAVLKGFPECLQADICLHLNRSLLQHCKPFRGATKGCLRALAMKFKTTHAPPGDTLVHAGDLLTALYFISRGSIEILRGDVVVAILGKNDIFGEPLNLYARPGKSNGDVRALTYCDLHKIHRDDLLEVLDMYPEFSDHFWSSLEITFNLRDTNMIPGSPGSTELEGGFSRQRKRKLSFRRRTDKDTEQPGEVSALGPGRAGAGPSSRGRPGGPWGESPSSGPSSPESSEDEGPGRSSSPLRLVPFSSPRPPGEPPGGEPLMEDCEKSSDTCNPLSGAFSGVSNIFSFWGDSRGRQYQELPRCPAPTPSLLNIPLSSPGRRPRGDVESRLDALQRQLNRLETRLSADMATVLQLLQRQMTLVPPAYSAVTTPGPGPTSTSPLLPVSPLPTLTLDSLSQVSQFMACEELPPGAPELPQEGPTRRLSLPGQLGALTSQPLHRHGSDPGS
row,SMILES,"hERG current change (%, negative = inhibition) at 10uM [%]"
1,CCOC(=O)N1CCN(CC(=O)Nc2ccc(C)cc2)CC1,-63.2
2,O=C(COC(=O)CNC(=O)c1ccc(Cl)cc1)Nc1cccc(S(=O)(=O)N2CCCC2)c1,-33.5
3,COc1ccc([C@@H]2CC=C(C(=O)O)[C@H](c3cccc(Cl)c3)N2S(=O)(=O)c2ccc(C)cc2)cc1OC,8.67
4,O=C(c1ccc(NS(=O)(=O)c2ccc3[nH]c(=O)[nH]c3c2)cc1)N1CCN(c2ccccc2O)CC1,-0.33
5,O=C(CCc1nc2ccccc2s1)OCc1ccccc1,-14.1
6,COc1ccc(-c2[nH]ncc2CN2CCCO2)c(F)c1,9.1
7,COc1ccc(Nc2nc(NCc3ccco3)nc(N/N=C/c3ccc(O)cc3)n2)cc1,-45.6
8,CC(=O)c1ccccc1C(=O)N1CCCC(N2CCN(Cc3ccc4c(c3)OCO4)CC2)C1 (centres unmarked),-6.28
9,CCOC(=O)N1CCN(c2c(N3CC=C(c4ccccc4)CC3)c(=O)c2=O)CC1,-51.9
10,O=C(CC1S/C(=N/N=C/c2c[nH]c3ccccc23)NC1=O)Nc1ccccc1 (centres unmarked),6.67
11,Cc1ccc(-c2nnc(SCC(=O)Nc3sc(C)c(C)c3C#N)n2C)cc1,-54.1
12,O=C(c1ccccc1NS(=O)(=O)c1ccc(Cl)cc1)N1CCc2ccccc21,1.76
13,O=C(Nc1cc(C(F)(F)F)ccc1N1CCOCC1)c1n[nH]c(=O)c2ccccc12,8.95
14,CN1CCN(C(=O)NC2CCCCC2)CC1.O=C(O)C(=O)O,0.275
15,NC(=O)C1CCN(C(=O)/C(=C/c2ccco2)NC(=O)c2ccccc2)CC1,11.2
16,Cc1cc(C(=O)Nc2cccnc2Cl)on1,-3.33
17,Cc1ccccc1NC(=O)CCS(=O)(=O)c1ccc(Br)cc1,7.36
18,Nc1cc(=O)[nH]c(SCCOc2ccccc2)n1,11.5
19,COC(=O)c1ccc(C2C(C#N)=C(N)Oc3cc(O)ccc32)cc1 (centres unmarked),8.69
20,O=c1c2cc(Cl)ccc2nc(-c2ccc([N+](=O)[O-])cc2)n1O,6.05
21,CCn1nc(CC(=O)Nc2ccc(-n3cnnn3)c(OC)c2)c2ccccc2c1=O,4.46
22,CC(C)Oc1ccc(C(=O)OCC(=O)NC2CCCCCC2)cc1,7.83
23,COC(C)(C)CCCC(C)C/C=C/C(C)=C/C(=O)OC(C)C (centres unmarked),10.3
